Source: article PMC12136788
This is one part of the list.

T1: UNK ZnF1-6 (called full-length) (human, UniProt Q9C0B0 30-357)
T1 sequence: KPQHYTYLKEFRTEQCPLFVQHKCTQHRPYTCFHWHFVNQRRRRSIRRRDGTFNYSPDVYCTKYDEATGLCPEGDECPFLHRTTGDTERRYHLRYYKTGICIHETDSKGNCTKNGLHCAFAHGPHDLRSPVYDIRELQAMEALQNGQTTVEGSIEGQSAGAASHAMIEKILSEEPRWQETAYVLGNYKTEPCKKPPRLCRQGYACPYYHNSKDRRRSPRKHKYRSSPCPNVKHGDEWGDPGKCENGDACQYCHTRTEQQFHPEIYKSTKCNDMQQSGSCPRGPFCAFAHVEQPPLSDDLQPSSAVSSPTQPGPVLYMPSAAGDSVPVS

B1: ENSG00000119396:stop:overlap|stop_codon|ENSG00000119396|stop_codon|NA|stop_codon (ssRNA)
RNA: GGGAGUUCUACAGUCCGACGAUCCCCCGCAGGGAGGCCGGCUAACCAGUGAACCCCAACCCCAGAGAGAAGGCUGUGGCUGCUAGUGACCUCUUUGCUGUGGCCCCUCAUUUGACCUUUCACCUCUGUCUGUUGGAAGCAGUACAACAGAGGAUUGAGCAUCA
B2: chr1:32196777:32196878:+|3pUTR|ENSG00000084652|msi1|total|mutant (ssRNA)
RNA: GGGAGUUCUACAGUCCGACGAUCUUUGAAGCCCGUUCAUUGUCCUGCAGGUCCCUUCAUCUUCCAUACCCCGCCCACUCUUUCCGCCCUUACCUUAAAUCUCUCAGAUAAGUUGGUUCACAAAGAAUGUUAAGUACUGAAUCACAACAGAGGAUUGAGCAUCA
B3: chr16:46702281:46707703:-|three_prime_utr|ENSG00000140795|control|control|control (ssRNA)
RNA: GGGAGUUCUACAGUCCGACGAUCUCACUACGUGUGAAAUGCUCUGAGUACCUUUCAAAUAUACCUACUUUUGGUGGUAAGUGUAGGGAUGCUUUAGGUAGGUACUUUGCAUCUGUCGAAUUUAAAUUCUAAACUCACACUGAUCAACAGAGGAUUGAGCAUCA
B4: chr3:152464585:152464701:+|3pUTR|ENSG00000152601|msi1|FALSE|unique (ssRNA)
RNA: GGGAGUUCUACAGUCCGACGAUCAUAUUUUUGAAAUCCCUGAGUAUCAGGCCUUGUUAUAAAUAAGCUGCAUAAUCAAUAAAUAGAACAAGGGACUUUUUGUUGAUAAUCCAAAUACUCAAAGUUUACGUAAUGAAAAUUAUACAACAGAGGAUUGAGCAUCA
B5: ENSG00000124766:be:win_3701|3pUTR|ENSG00000124766|bound_else_gene|NA|bound_elsewhere_windowed (ssRNA)
RNA: GGGAGUUCUACAGUCCGACGAUCUCAGGUUUAUAGCUGUUGUGUUUAAAAAUUGAAAAAAGUGGAAAACAUCUUUGUACAUUUAAGUCUGUAUUAUAAUAAGCAAAAAGAUUGUGUGUAUGUAUGUUUAAUAUAACAUGACAGCAACAGAGGAUUGAGCAUCA
B6: chr18:70325936:70326038:+|CDS|ENSG00000170677|unk|FALSE|unique (ssRNA)
RNA: GGGAGUUCUACAGUCCGACGAUCAGCUUUCGCUCCCAUGGUAAAACACUUCACACUAGAAUUGAGCACUCAAAUGGUAGGUUUAGCUUUUAUGAACAGCCAGAUGUGGAAGGACAUACGUCCAUAGUUGAUCUAAUUGAGCAUCAACAGAGGAUUGAGCAUCA
B7: chr16:1999495:2000256:-|CDS|ENSG00000167962|control|control|control (ssRNA)
RNA: GGGAGUUCUACAGUCCGACGAUCUGGCACCGCCCCCACCAGCCUUGUCUCUGCCUGGAACAGCAGCAGUAGCAGCAAGAAGGUAGCACAGCCCCCACUCUCGGCGCAGGCUACCGGCAGCGGCCAGCCCACCAGGAAGGCUGGCAACAGAGGAUUGAGCAUCA
B8: ENSG00000198589:be:win_8851|3pUTR|ENSG00000198589|bound_else_gene|NA|bound_elsewhere_windowed (ssRNA)
RNA: GGGAGUUCUACAGUCCGACGAUCUUAUUCCAGCUAUAAUAUUAUGAAGAACAUUUCCCAUGCAUCUACAAGCUUGAGAAAUAGGAUUUUCACAGUGGGGAAGUGGGUUACAAUAUUGGAAUAGGAAAAUUUGAUGCUGUAAUUCAACAGAGGAUUGAGCAUCA
B9: chr7:5620113:5620210:-|3pUTR|ENSG00000011275|msi1_unk|FALSE|overlapping (ssRNA)
RNA: GGGAGUUCUACAGUCCGACGAUCGUCACUUUGUAUAAAAACAAGAAACGAUUAGUUCAUUAAACUUUUUCUUUACCUUCUGGUAGUAAAAAUAGAUAAAAUAAUUCCGUUUCAACUACUGUGUGUAAAAAGCCUGUAUCAUAUCAACAGAGGAUUGAGCAUCA
B10: chr1:43978039:43978149:+|3pUTR|ENSG00000117410|unk|total|mutant (ssRNA)
RNA: GGGAGUUCUACAGUCCGACGAUCGGCCGUGCCUCACUUUUAUUUAUUGCUGGUUUUCCUGGGACAGCUGGAGCUGUGUCCCUCCGCCUUUCAGAGGCUUGGUGUUCAGGGCCCUCCCUGCACUCCCCUCUUGCUGCGUGUUGACAACAGAGGAUUGAGCAUCA
B11: chr7:92141642:92142809:-|three_prime_utr|ENSG00000240720|control|control|control (ssRNA)
RNA: GGGAGUUCUACAGUCCGACGAUCAACAGUUUCUUUUGGAUCUUUUUGCAGAGCUACUAUGGAAGAUGCACUCUUUCUGCGGGUAGGUUAUGAGUCUUUUAGUCUUGGUAUAUCAUGCACAGUGUGUAGUAGUCUGCCGAGAGCCAACAGAGGAUUGAGCAUCA
B12: chr16:2457226:2457327:+|3pUTR|ENSG00000162063|unk|FALSE|unique (ssRNA)
RNA: GGGAGUUCUACAGUCCGACGAUCCAAGCCAUCAGAAUGUUGAAAUGAGGGUGAAGAGCUCAGAUCCCUCUCUUUGGAAAGUUUAGCCUGGAAGCAGUUGGCCACACUGUGUGGAGGGCACCUCUCUGUCCCUUCCGUGUCUCACAACAGAGGAUUGAGCAUCA
B13: chr12:57820040:57820141:-|3pUTR|ENSG00000175215|msi1|total|mutant (ssRNA)
RNA: GGGAGUUCUACAGUCCGACGAUCUUUUGCUUAUCAUGUUCCAUUUCGUGCCGCUUUCCCCCUUCAAGAUGCCAUUUGGAGGGCCGGGGAUCUGCUUCCCACUGUGACUGGGCUAUGGGAUUCUGACUACCUUGCUUACAGAUUCAACAGAGGAUUGAGCAUCA
B14: chr5:80437677:80437780:+|CDS|ENSG00000039319|unk|total|mutant (ssRNA)
RNA: GGGAGUUCUACAGUCCGACGAUCUUCCUUUCAGGAAGAUAAGACUGUUAUAAAACAAUCUGCACAAGAAGACUCAAAAAGUUCCGACCUUAAGGAUAAUGAUGUAAUCCAAGAUUCCUCUUCAGCUUUACAUGUUUCCAGUAACAACAGAGGAUUGAGCAUCA

target: T1, UNK ZnF1-6 (called full-length); assay: nsRBNS (natural sequence RNA bind-n-seq); RBNS binding buffer (assumed for nsRBNS): 25 mM Tris pH 7.5, 150 mM KCl, 3 mM MgCl2, 0.01% Triton X-100, 500 ug/ml BSA, 20 U/ml SUPERase-In, 4 C; UNK is unkempt and MSI1 is Musashi-1; names of the RNAs are library labels; protein concentration not given here; high values mean tight binding

| Binder | binding signal |
| --- | --- |
| B1 | 0.836 enrichment R |
| B2 | 0.657 enrichment R |
| B3 | 0.371 enrichment R |
| B4 | 0.571 enrichment R |
| B5 | 0.65 enrichment R |
| B6 | 1.06 enrichment R |
| B7 | 0.776 enrichment R |
| B8 | 0.666 enrichment R |
| B9 | 1.37 enrichment R |
| B10 | 0.779 enrichment R |
| B11 | 0.61 enrichment R |
| B12 | 0.508 enrichment R |
| B13 | 0.685 enrichment R |
| B14 | 0.323 enrichment R |
